Experimental data as given in PMC4336329 (PLoS ONE, 2015).
Among all 310,000 compounds or so, about 2,200 (0.71%) showed an effect of 50% or more. Effects have a minus sign here. The list shows a part of the results.

biological target: human ether-à-go-go-related gene (hERG) potassium channel (human, UniProt Q12809); experiment: primary screen, population patch clamp on CHO cells stably expressing hERG
Sequence (Q12809 whole entry, looked up): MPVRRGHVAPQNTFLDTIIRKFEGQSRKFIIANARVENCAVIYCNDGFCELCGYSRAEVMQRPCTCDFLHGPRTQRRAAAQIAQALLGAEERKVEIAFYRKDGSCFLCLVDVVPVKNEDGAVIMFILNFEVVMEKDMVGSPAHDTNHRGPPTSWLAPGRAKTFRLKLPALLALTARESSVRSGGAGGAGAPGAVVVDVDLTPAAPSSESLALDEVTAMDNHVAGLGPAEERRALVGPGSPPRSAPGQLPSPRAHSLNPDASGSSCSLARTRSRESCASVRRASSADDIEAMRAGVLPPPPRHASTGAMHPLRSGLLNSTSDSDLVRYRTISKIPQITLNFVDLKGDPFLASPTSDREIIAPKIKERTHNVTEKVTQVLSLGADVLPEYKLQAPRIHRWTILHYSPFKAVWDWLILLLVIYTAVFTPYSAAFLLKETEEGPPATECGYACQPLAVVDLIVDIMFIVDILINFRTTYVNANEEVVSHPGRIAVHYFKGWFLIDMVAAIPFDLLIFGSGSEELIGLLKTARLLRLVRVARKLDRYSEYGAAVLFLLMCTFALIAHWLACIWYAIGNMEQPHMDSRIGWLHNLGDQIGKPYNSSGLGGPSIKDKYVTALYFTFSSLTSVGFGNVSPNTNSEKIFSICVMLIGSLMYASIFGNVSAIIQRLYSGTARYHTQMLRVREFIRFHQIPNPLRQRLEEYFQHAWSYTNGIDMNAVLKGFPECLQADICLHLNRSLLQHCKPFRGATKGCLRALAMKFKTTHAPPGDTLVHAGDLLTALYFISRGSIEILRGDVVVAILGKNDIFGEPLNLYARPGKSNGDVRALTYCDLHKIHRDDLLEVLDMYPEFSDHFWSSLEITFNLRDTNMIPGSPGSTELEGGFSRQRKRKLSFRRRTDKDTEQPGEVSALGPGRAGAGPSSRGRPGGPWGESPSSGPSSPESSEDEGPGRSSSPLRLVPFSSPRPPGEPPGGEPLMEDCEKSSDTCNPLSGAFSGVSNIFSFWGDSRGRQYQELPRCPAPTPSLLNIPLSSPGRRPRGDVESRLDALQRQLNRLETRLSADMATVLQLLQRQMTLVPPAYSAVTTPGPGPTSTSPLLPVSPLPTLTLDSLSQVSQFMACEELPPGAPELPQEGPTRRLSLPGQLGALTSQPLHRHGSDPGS

In order of rising “hERG current change (%, negative = inhibition) at 1uM” value:
1. COc1ccc(CCN(C)C2CCCN(S(=O)(=O)c3ccccc3F)C2)cc1OC (stereo not shown)  -45.9%
2. CCCNc1c(NS(=O)(=O)c2ccc(C)cc2C)c(=O)oc2ccccc12  -36.7%
3. C=C(C)[C@@H]1CC=C(CN2CCC(N3CCC(C(=O)N4CCCC4)CC3)CC2)CC1  -24.6%
4. CC1CN(C(=O)/C=C/c2ccc3c(c2)OCO3)CC(C)O1 (stereo not shown)  -17.9%
5. Nc1c(Cl)c(Cl)nc(C(=O)OCC(=O)NC2CCCCC2)c1Cl  -17.1%
6. C(#Cc1ccccc1)C[N+]1(CC#Cc2ccccc2)CCCCC1.[Br-]  -15.7%
7. CCCCn1c(=NC(C)=O)c(C#N)cc2c(=O)n3cccc(C)c3nc21  -14%
8. CCN1CCc2c(OCC(=O)N3N=C(c4cccs4)CC3c3ccc(F)cc3)cccc2C1=O (stereo not shown)  -8.94%
9. O=C(NCc1ccccn1)C1CCN(Cc2cnn(-c3ccccc3)c2-n2cccc2)CC1  -3.33%
10. CN(C)C(CNC(=S)Nc1ccc(Cl)cc1)c1cccnc1 (stereo not shown)  -2.39%
11. COc1cc(/C=N/NC(=O)c2ccc3ccccc3c2)ccc1Oc1ccc([N+](=O)[O-])cn1  -0.87%
12. CC(Sc1nnnn1C)C(=O)Nc1ncc(Cl)cc1Cl (stereo not shown)  -0.587%
13. CCN(C(=O)CN1CCN(C)CC1)c1c(N)n(Cc2ccccc2)c(=O)[nH]c1=O  -0.443%
14. CN(c1cccc(NC(=O)CSc2ccc(Cl)cc2)c1)S(C)(=O)=O  0.236%
15. COc1ccc(Cn2c(SCC(=O)NCc3ccco3)nc3ccsc3c2=O)cc1  0.371%
16. CC(C)[C@H](NC(=O)OCc1ccccc1)C(=O)OCc1cc(=O)oc2cc(O)ccc12  0.75%
17. COc1cc(CNn2nnnc2N)cc(Br)c1OCC(=O)NC(C)(C)C  0.783%
18. Cc1ccc(S(=O)(=O)N2CCN(C(=O)C3Cc4ccccc4CN3C(=O)c3ccco3)CC2)cc1 (stereo not shown)  1.64%
19. C[N+]1(CCOc2ccc([N+](=O)[O-])cc2)CCOCC1.[I-]  2.61%
20. COc1ccc([C@@H](C)NC(=O)CCc2nnc(-c3cc(C)on3)o2)cc1  3%
21. CCOc1ccc(Nc2nc3cc(S(=O)(=O)N(CC)CC)ccc3o2)cc1  3.11%
22. Cc1cccn2c(=O)c(/C=N/O)c(N3CCCC3)nc12  3.73%
23. Cc1sc(NC(=O)C2C3CCC(C3)C2C(=O)O)c(C(N)=O)c1-c1ccc(C(C)(C)C)cc1 (stereo not shown)  4.31%
24. O=C(NC1CCCCC1)C(c1ccc(Cl)cc1)N(C(=O)c1cnccn1)c1ccc2c(c1)OCO2 (stereo not shown)  4.36%
25. CC(C)Oc1ccc(C(=O)NC2CCS(=O)(=O)C2)cc1 (stereo not shown)  4.64%
26. Cc1ccc(NC(=O)C2CCN(S(=O)(=O)c3c(C)noc3/C=C/c3ccco3)CC2)nc1  4.88%
27. COc1ccc(-c2noc(=O)[nH]2)cc1  5.43%
28. CNc1oc(Cc2ccccc2)nc1S(=O)(=O)c1ccccc1  5.78%
29. COC(=O)c1sc2nc3c(cc2c1N)COC(C)(C)C3  5.95%
30. O=C(c1ccco1)N(Cc1ccccc1)c1cccc([N+](=O)[O-])c1  6.11%
31. Cc1sc2ncn(/N=C/c3ccco3)c(=O)c2c1C  6.44%
32. COc1ccc(Cn2c(-c3ccc(OC)c(O)c3)nc3ccccc32)cc1O  6.77%
33. COc1ccc(CN(C(=O)c2cc(=O)c3cc(C)cc(C)c3o2)C2CCS(=O)(=O)C2)cc1 (stereo not shown)  6.89%
34. CCCc1cc(=O)[nH]c(SCC(=O)Nc2sc(C(N)=O)c(C)c2C(=O)OCCOC)n1  6.92%
35. CC1CC(C)(C)NC(=S)N1CCC(=O)N1c2ccccc2CC1C (stereo not shown)  7.04%
36. Cc1ccc(S(=O)(=O)Nc2ccncc2)c(C)c1.Cl  7.15%
37. CCOCCCNC(=O)CSc1nnc(-c2ccc(S(=O)(=O)N3CCCC3)cc2)n1C  7.3%
38. CSCC[C@H](NC(=O)OC(C)(C)C)C(=O)NCC1CCC(C(=O)N[C@@H](Cc2ccccc2)C(=O)O)CC1 (stereo partly shown)  7.43%
39. CCCn1nc2cc(C(=O)NCCc3cccs3)ccc2c1OCC  7.59%
40. N#Cc1c(NCCO)ccc([N+](=O)[O-])c1NCCO  7.61%
41. Cc1ccc2nc(Nc3ccc(F)cc3)c3nncn3c2c1  8.04%
42. Cc1cccc(C(P(=O)(c2ccccc2)c2ccccc2)P(=O)(c2ccccc2)c2ccccc2)n1  8.36%
43. CCc1cccc(CC)c1NC(=O)C1CCN(C(=O)c2ccco2)CC1  8.46%
44. CCCOP(=O)(OCCC)C(NC(=O)c1cc(OC)c(OC)c(OC)c1)c1ccccc1 (stereo not shown)  8.5%
45. CN(Cc1ccccc1)C(=O)Nc1ccccc1  8.6%
46. Brc1ccccc1OCCCN1CCCC1.O=C(O)C(=O)O  8.64%
47. Cc1cccc(N(C)C(=O)CN(C)S(=O)(=O)c2ccc3c(c2)c(=O)n(C)c(=O)n3C)c1  8.94%
48. Cc1nc2ccccc2n1Cc1n[nH]c(=S)n1-c1ccc(Cl)cc1  9.06%
49. O=C(CN1CCCCC1)N1CCCc2ccccc21.O=C(O)C(=O)O  9.31%
50. COc1ccc(Cl)cc1C(=O)NC(=S)Nc1ccccc1N1CCOCC1  9.75%
51. COc1cc(OC)cc(C(=O)NCc2ccc3c(c2)OCO3)c1  10.2%
52. Cn1c(/C(C#N)=C(\O)c2ccc(Cl)s2)nc2ccccc21  10.3%
53. CCC(C)Sc1nnc(CSc2nc3nc(C)cc(C)n3n2)o1 (stereo not shown)  10.4%
54. O=C(Nc1ccc2ccccc2n1)Nc1cccs1  10.6%
55. Cc1ccccc1-n1c(SCC(=O)O)nc2sc3c(c2c1=O)CCCC3  11.2%
56. COc1ccc(C2C=C(c3ccc(Br)cc3)Nc3nc(NS(C)(=O)=O)nn32)cc1 (stereo not shown)  11.5%
57. Cc1cc2sc3ccccc3c(=O)c2c(C)c1O  11.7%
58. COc1ccc(OC)c(Cc2nnc(CCC(=O)N3CCCCCC3)o2)c1  11.7%
59. CC(=O)Nc1ccc(S(=O)(=O)NCCC(=O)OCc2nc(N)nc(Nc3ccccc3C)n2)cc1  11.8%
60. CS(=O)(=O)N(CC(=O)Nc1cccc(Br)c1)Cc1ccccc1  12%
61. COc1ccc(/C=C/C(=O)NCc2cn(C)nc2C)cc1COc1ccc(Br)cc1  13%
62. Cc1ccc(S(=O)(=O)NC(C)C(=O)N2CCOCCOCCOCCOCC2)cc1 (stereo not shown)  13%
63. CCOc1ccc(C2C(C(=O)c3ccco3)=C(O)C(=O)N2CCN2CCOCC2)cc1 (stereo not shown)  13.2%
64. Cc1ccnc(NC(=O)CCCOc2ccccc2)c1  13.4%
65. COc1cc([C@@H]2c3cc4c(cc3[C@@H](O)[C@H]3COC(=O)[C@H]23)OCO4)cc(OC)c1O[Si](C)(C)C(C)(C)C  13.7%
66. Cc1ccc(/C([O-])=C(/C(=S)Nc2ccc(SC(F)F)cc2)[n+]2ccccc2)cc1[N+](=O)[O-]  13.8%
67. CN(C(=O)c1ccccc1)c1ccc(OCC(=O)NC2CCS(=O)(=O)C2)cc1 (stereo not shown)  14%
68. Cc1oc(-c2cccc(Cl)c2)nc1CS(=O)(=O)CC(=O)NCCCN1CCOCC1  14.6%
69. O=C(Nc1ccccc1)c1nn(-c2ccccc2)c(=O)cc1C(F)(F)F  15.1%
70. O=C1CN(/N=C/c2ccc([N+](=O)[O-])o2)C(=O)N1  15.3%
71. N#Cc1ccc(-c2nc3ccccc3c(=O)n2O)cc1  15.6%
72. O=C(CSCc1cc(=O)n2nc(C3CC3)sc2n1)Nc1ccc(F)cc1  16%
73. CCc1ccc(/C=N/n2c(C3CCCCC3)n[nH]c2=S)cc1  16.2%
74. C[C@@H]1CCC(=O)N(CC[C@H](Sc2ccccc2)c2ccccc2)CC1  16.3%
75. CCOC(=O)N1CCN(Cc2nnc(-c3ccccc3Cl)o2)CC1.Cl  16.4%
76. CCOc1ccc(Br)cc1C1C(C(=O)OC)=C(N)Oc2cc(N(C)C)ccc21 (stereo not shown)  16.6%
77. CCCCNC(=O)c1ccc(CS(=O)(=O)c2ccc(C)cc2)o1  16.9%
78. COc1ccc(C/C(O)=C(\C#N)c2nc3ccccc3s2)cc1  17.2%
79. O=C(Nc1cccc([N+](=O)[O-])c1)c1cc(S(=O)(=O)N2CCOCC2)cs1  17.2%
80. CN(Cc1ccccc1)C(=O)c1[nH]cnc1C(=O)Nc1cccc(Cl)c1  17.9%
81. COc1ccc(CCNC(=O)C(=O)NCC2CCCN2S(=O)(=O)c2cccs2)cc1 (stereo not shown)  18.7%
82. O=C(CCc1ccccc1)NNC(=O)COc1ccc(Cl)cc1  21.5%
83. O=C(NCC(=O)N(Cc1ccccc1)C(C(=O)NC1CCCC1)c1cccnc1)c1ccco1 (stereo not shown)  22.5%
84. COc1ccc(/C=N/OCC(=O)N=Nc2c(O)[nH]c3ccc(Br)cc23)cc1  23.1%
85. Cc1ccc(C(=O)N2c3ccccc3CC2C)o1 (stereo not shown)  25.4%
